# Results reported in the supplement of paper PMC8728848.
# Some of the results follow.
# Key:
# Test in all cases: glycan array binding signal (z-score within array); higher = stronger binding
# Settings in all cases: glycan notation: IUPAC condensed, linker removed
# [1] = target: Gal(b1-4)GlcNAc(b1-2)Man
# Method in brief: (§1)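 Arrays were curated from the Consortium for Functional Glycomics database, 3228 in total, and kept only where the protein sequence was available. Binding is expressed as a within-array Z-score. This score was averaged across arrays of the same protein sequence at different concentrations or buffers and across linkers, and negative values can be read as non-binding.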
# [2] = target: Gal(b1-4)GlcNAc(b1-2)Man(a1-3)Man(b1-4)GlcNAc(b1-4)GlcNAc
# Method in brief: as §1
# [3] = target: Gal(b1-4)GlcNAc(b1-2)Man(a1-3)[Gal(b1-4)GlcNAc(b1-2)Man(a1-6)]Man(b1-4)GlcNAc(b1-4)GlcNAc
# Method in brief: as §1
# [4] = target: Gal(b1-4)GlcNAc(b1-2)Man(a1-3)[Gal(b1-4)GlcNAc(b1-2)Man(a1-6)]Man(b1-4)GlcNAc(b1-4)[Fuc(a1-6)]GlcNAc
# Method in brief: as §1
# [5] = target: Gal(b1-4)GlcNAc(b1-2)Man(a1-3)[Gal(b1-4)GlcNAc(b1-2)Man(a1-6)][Gal(b1-4)GlcNAc(b1-4)]Man(b1-4)GlcNAc(b1-4)[Fuc(a1-6)]GlcNAc
# Method in brief: as §1
# [6] = target: Gal(b1-4)GlcNAc(b1-2)Man(a1-3)[Gal(b1-4)GlcNAc(b1-2)Man(a1-6)][GlcNAc(b1-4)]Man(b1-4)GlcNAc(b1-4)[Fuc(a1-6)]GlcNAc
# Method in brief: as §1
# [7] = target: Gal(b1-4)GlcNAc(b1-2)Man(a1-3)[Gal(b1-4)GlcNAc(b1-2)][GlcNAc(b1-4)]Man(b1-4)GlcNAc(b1-4)GlcNAc
# Method in brief: as §1
# [8] = target: Gal(b1-4)GlcNAc(b1-2)Man(a1-3)[GlcNAc(b1-2)Man(a1-6)]Man(b1-4)GlcNAc(b1-4)GlcNAc
# Method in brief: as §1
# [9] = target: Gal(b1-4)GlcNAc(b1-2)Man(a1-3)[GlcNAc(b1-4)][Gal(b1-4)GlcNAc(b1-2)Man(a1-6)]Man(b1-4)GlcNAc(b1-4)GlcNAc
# Method in brief: as §1
# [10] = target: Gal(b1-4)GlcNAc(b1-2)Man(a1-3)[Man(a1-6)]Man(b1-4)GlcNAc(b1-4)GlcNAc
# Method in brief: as §1
# [11] = target: Gal(b1-4)GlcNAc(b1-2)Man(a1-6)Man(b1-4)GlcNAc(b1-4)GlcNAc
# Method in brief: as §1
# [12] = target: Gal(b1-4)GlcNAc(b1-2)Man(a1-6)[GlcNAc(b1-2)Man(a1-3)]Man(b1-4)GlcNAc(b1-4)GlcNAc
# Method in brief: as §1
# [13] = target: Gal(b1-4)GlcNAc(b1-2)Man(a1-6)[Man(a1-3)]Man(b1-4)GlcNAc(b1-4)GlcNAc
# Method in brief: as §1
# [14] = target: Gal(b1-4)GlcNAc(b1-2)[Gal(b1-4)GlcNAc(b1-4)]Man(a1-3)[Gal(b1-4)GlcNAc(b1-2)Man(a1-6)]Man(b1-4)GlcNAc(b1-4)GlcNAc
# Method in brief: as §1
# [15] = target: Gal(b1-4)GlcNAc(b1-2)[Gal(b1-4)GlcNAc(b1-4)]Man(a1-3)[Gal(b1-4)GlcNAc(b1-2)[Gal(b1-4)GlcNAc(b1-6)]Man(a1-6)]Man(b1-4)GlcNAc(b1-4)GlcNAc
# Method in brief: as §1
# [16] = target: Gal(b1-4)GlcNAc(b1-2)[Gal(b1-4)GlcNAc(b1-4)]Man(a1-3)[GlcNAc(b1-4)][Gal(b1-4)GlcNAc(b1-2)Man(a1-6)]Man(b1-4)GlcNAc(b1-4)GlcNAc
# Method in brief: as §1
# [17] = target: Gal(b1-4)GlcNAc(b1-2)[Gal(b1-4)GlcNAc(b1-4)]Man(a1-3)[GlcNAc(b1-4)][Gal(b1-4)GlcNAc(b1-2)[Gal(b1-4)GlcNAc(b1-6)]Man(a1-6)]Man(b1-4)GlcNAc(b1-4)GlcNAc
# Method in brief: as §1
# [18] = target: Gal(b1-4)GlcNAc(b1-2)[Gal(b1-4)GlcNAc(b1-6)]Man(a1-6)[Gal(b1-4)GlcNAc(b1-2)Man(a1-3)]Man(b1-4)GlcNAc(b1-4)GlcNAc
# Method in brief: as §1
# [19] = target: Gal(b1-4)GlcNAc(b1-2)[Gal(b1-4)GlcNAc(b1-6)]Man(a1-6)[Gal(b1-4)GlcNAc(b1-2)Man(a1-3)]Man(b1-4)GlcNAc(b1-4)[Fuc(a1-6)]GlcNAc
# Method in brief: as §1
# [20] = target: Gal(b1-4)GlcNAc(b1-2)[Gal(b1-4)GlcNAc(b1-6)]Man(a1-6)[GlcNAc(b1-4)][Gal(b1-4)GlcNAc(b1-2)Man(a1-3)]Man(b1-4)GlcNAc(b1-4)GlcNAc
# Method in brief: as §1
# [21] = target: Gal(b1-4)GlcNAc(b1-2)[Gal(b1-4)GlcNAc(b1-6)]Man(a1-6)[GlcNAc(b1-4)][Gal(b1-4)GlcNAc(b1-2)[Gal(b1-4)GlcNAc(b1-4)]Man(a1-3)]Man(b1-4)GlcNAc(b1-4)[Fuc(a1-6)]GlcNAc
# Method in brief: as §1
# [22] = target: Gal(b1-4)GlcNAc(b1-3)Gal(b1-3)GalNAc
# Method in brief: as §1
binder,measurement,setting,value
"Gal 1 (Mus musculus), P16045 (protein) MACGLVASNLNLKPGECLKVRGEVASDAKSFVLNLGKDSNNLCLHFNPRFNAHGDANTIVCNTKEDGTWGTEHREPAFPFQPGSITEVCITFDQADLTIKLPDGHEFKFPNRLNMEAINYMAADGDFKIKCVAFE",glycan array binding signal (z-score),[1],-0.253
same,glycan array binding signal (z-score),[2],0.04
same,glycan array binding signal (z-score),[3],0.982
same,glycan array binding signal (z-score),[4],0.146
same,glycan array binding signal (z-score),[5],0.539
same,glycan array binding signal (z-score),[6],0.11
same,glycan array binding signal (z-score),[7],-0.159
same,glycan array binding signal (z-score),[8],-0.062
same,glycan array binding signal (z-score),[9],0.031
same,glycan array binding signal (z-score),[10],0.103
same,glycan array binding signal (z-score),[11],0.083
same,glycan array binding signal (z-score),[12],0.054
same,glycan array binding signal (z-score),[13],-0.163
same,glycan array binding signal (z-score),[14],1.23
same,glycan array binding signal (z-score),[15],2.09
same,glycan array binding signal (z-score),[16],0.891
same,glycan array binding signal (z-score),[17],1.41
same,glycan array binding signal (z-score),[18],1.54
same,glycan array binding signal (z-score),[19],2.11
same,glycan array binding signal (z-score),[20],0.059
same,glycan array binding signal (z-score),[21],0.621
same,glycan array binding signal (z-score),[22],-0.307
